PubChem BioAssay AID686979 (National Center for Advancing Translational Sciences (NCATS), 2013)
Values joined by “and” are separate entries in the source; they are usually repeats but may differ in a detail not shown here. Identical values can stand only once. About 50,000 (12%) of roughly 420,000 compounds were called active. Inconclusive means that the source gave no clear call. Such entries were picked first, then a sample of the others. The call rests on the fitted dose curve; in most records, active means well fitted inhibition curve with a large enough effect; inconclusive means small, poorly fitted or top-dose-only effect; inactive means flat fitted curve, though single readings scatter. Where the call is inconclusive, the potency comes from a doubtful curve fit.

Test: qHTS for Inhibitors of human tyrosyl-DNA phosphodiesterase 1 (TDP1): qHTS in cells in presence of CPT; further: nearly all actives have a fitted effect of over 55% in size
Conditions: chicken DT40 Tdp1-/-;hTDP1 cells + 20 nM CPT, ATP luminescence, 48 h; activity change, negative = growth inhibition: at 46.2 µM (top of the series)
Outline: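 Chicken DT40 Tdp1-/- cells stably complemented with human TDP1 were seeded at 400 cells/well in medium containing 20 nM camptothecin, exposed to pin-transferred compounds, and grown at 37 °C for at least 48 hr. Viability was read as ATP luminescence.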
On the % scale 0 is the no-effect control and ±100 the full control effect; potency means the concentration at half of the fitted maximal effect; tags describe the fitted curve by direction and shape.

Structure (SMILES)	Potency	activity change, negative = growth inhibition
N#Cc1nc(COc2cccc(Cl)c2)oc1NCc1ccncc1	inactive	–
Cc1ccc(Oc2cc(NC(=O)CCCn3nc([N+](=O)[O-])c(Cl)c3C)cc([N+](=O)[O-])c2)cc1	active: 20.6 µM	–
CC(=O)c1cccc(NC(=O)C2(C)Cc3c(-c4cccc(C(N)=O)c4)ccnc3O2)c1 (centres undefined)	inconclusive: 16.4 µM [inhibitor, single point]	–
Cc1sc2ncnc(N3CCC(C(=O)Nc4ccc(Cl)c(Cl)c4)CC3)c2c1C	inconclusive: 29.1 µM [inhibitor, single point]	–
O=C(Nc1ccc(Cl)c(-c2nc3cc(Cl)ccc3o2)c1)c1cc2ccccc2o1	inconclusive: 18.4 µM [inhibitor, single point]	–
COc1ccc(CCNc2oc(COc3ccccc3F)nc2C#N)cc1OC	inconclusive: 29.1 µM [inhibitor, single point]	–
CN(C)C(CNC(=S)Nc1ccc(F)cc1)c1cccnc1 (centres undefined)	inactive	–
COc1ccc(CCNC(=O)CSc2nc3[nH]ncc3c(=O)n2-c2ccc(C)c(Cl)c2)cc1OC	inactive	–
Cc1ccc(S(=O)(=O)N2CCCC(C(=O)NCc3cccnc3)C2)cc1Cl (centres undefined)	inactive	–
COc1ccccc1C(=O)Nc1ccnn1C1CCN(C2CCCCC2)CC1	inactive	–
Cc1ccccc1-c1nc(SCC(=O)N(C)c2ccccc2)c2c(=O)n(C)c(=O)n(C)c2n1	active: 20.6 µM	–
Cc1ccc(C)c(CN2C(=O)c3ccccc3S(=O)c3ccc(C(=O)NCCC4=CCCCC4)cc32)c1 (centres undefined)	active: 14.6 µM	–
COc1ccc(CCC(=O)NCCc2csc(-c3cccc(C)c3)n2)cc1	inconclusive: 18.4 µM [inhibitor, single point]	–
CN(CCc1ccccn1)C(=O)CCC1CCCN(C(=O)c2ccsc2)C1 (centres undefined)	inactive	–
Cc1ccccc1NS(=O)(=O)c1nnc(NC(=O)c2ccco2)s1	inconclusive: 29.1 µM [inhibitor, single point]	–
O=C1/C(=N\S(=O)(=O)c2cccs2)C([n+]2ccccc2)=C([O-])c2ccccc21	active: 2.31 µM	–
O=c1c(-c2cc(F)cc(F)c2)nc2cnc(N3CCNCC3)nc2n1CCc1ccccc1	inconclusive: 29.1 µM [inhibitor, single point]	–
CCc1c(C)[nH]n(-c2nc(-c3cccc([N+](=O)[O-])c3)cs2)c1=O	inconclusive: 29.1 µM [inhibitor, single point]	–
COc1ccc(N2CCN(c3oc(Cc4ccccc4)nc3C#N)CC2)cc1	inconclusive: 29.1 µM [inhibitor, single point]	–
CCCc1ccc(C(=O)NNC(=O)c2ccc(Cl)cc2)cc1	inactive	–
C/C(=N/NC(=O)c1ccc(Br)o1)c1cccc(NC(=O)c2ccc(F)cc2)c1	inconclusive: 23.1 µM [inhibitor, single point]	–
COC(=O)COc1ccccc1/C=C1/NC(=O)NC1=O	inactive	–
CC1CCN(CC(=O)Nc2cccc(C(=O)Nc3cccc(C(F)(F)F)c3)c2)CC1	inconclusive: 29.1 µM [inhibitor, single point]	–

Structure (SMILES)	Potency	activity change, negative = growth inhibition
CCN(c1ccccc1)S(=O)(=O)c1ccc(C(=O)N(C)Cc2cccs2)cc1	inconclusive: 25.9 µM [inhibitor, single point]	–
CCOC(=O)c1cc(C)n(CC2CCC(C(=O)Nc3cc(OC)cc(OC)c3)CC2)c1C (centres undefined)	inconclusive: 20.6 µM [inhibitor, single point]	–
COc1cc(NC(=O)CC(c2cccs2)N2Cc3ccccc3C2=O)cc(OC)c1OC (centres undefined)	active: 23.1 µM	–
CCN1C(=NCCOC)N[C@@H](c2cccc(C(F)(F)F)c2)C(C(=O)OC)=C1C	active: 20.6 µM	–
Cc1ccc(NS(=O)(=O)c2c(C)[nH]c(C)c2C(=O)N2CCCC2)cc1	inactive	–
COC(=O)[C@@]1(Cc2ccc(F)cc2)[C@H]2c3cc(C(=O)N(C)C)n(CC4CC4)c3C[C@H]2CN1C(=O)c1ccccc1	inconclusive: 29.1 µM [inhibitor, single point]	–
O=C1CCN(Cc2ccccc2)S(=O)(=O)c2ccc(F)cc21	inconclusive: 22.4 µM [inhibitor, single point]	–
COc1ccc(S(=O)(=O)N2CCCCC2)cc1NC(=O)C1CC(=O)N(c2ccc3c(c2)OCCO3)C1 (centres undefined)	inconclusive: 29.1 µM [inhibitor, single point]	–
Cc1ccc(C(C[N+](=O)[O-])Sc2ccc(N)cc2)cc1 (centres undefined)	active: 4.11 µM	–
COc1ccc(CN2CC(=O)N3[C@H]4c5cc(C)ccc5OC[C@@H]4[C@H](c4ccccc4)[C@]3(C)C2=O)cc1	inconclusive: 25.9 µM [inhibitor, single point]	–
CCCNC(=O)c1cnc2c(-c3ccc(OCC)c(OCC)c3)c(C)nn2c1-c1ccccc1	inconclusive: 11.6 µM [inhibitor, partial curve, poor fit]	–
Cc1onc(-c2c(Cl)cccc2Cl)c1C(=O)Nc1ccc(Cl)cn1	inconclusive: 18.4 µM [inhibitor, partial curve]	–
Cc1ccccc1/C=N/Nc1ncnc2nc[nH]c12	inactive	–
Cc1c(C(=O)Nc2nnc(C3CC3)s2)oc2c(Cl)cccc12	–	inconclusive: -21.4% [inhibitor]
CC(C)n1c(=N)c(C(=O)NC2CCCCC2)cc2c(=O)n3ccccc3nc21	inactive	–
O=C(CNc1ccc(Br)cc1)Nc1ccc(S(=O)(=O)N2CCCCC2)cc1	inconclusive: 29.1 µM [inhibitor, single point]	–
COc1ccccc1C(=O)NNC(=O)C1CC=CCC1 (centres undefined)	inactive	–
CCN(CCCNC(=O)Cn1ncc2c([nH]c3ccc(C)cc32)c1=O)Cc1ccccc1	inconclusive: 18.4 µM [inhibitor, single point] and inconclusive: 25.9 µM [inhibitor, single point]	–
Nc1ccc(C(=O)NCCCSc2ccccc2)cc1[N+](=O)[O-]	inconclusive: 29.1 µM [inhibitor, single point]	–
O=C(CNc1ccc(Cl)cc1)NNC(=S)NCc1ccccc1	–	inconclusive: -30.5% [inhibitor]
CCCC(=O)c1ccc(N2CCCCCC2)c(F)c1	inconclusive: 29.1 µM [inhibitor, single point]	–
CN(C(=O)NC(=O)C1=C(N2CCOCC2)/C(=C/c2ccccc2)CC1)S(C)(=O)=O	inactive	–
O=C(N1CCCCC1)N1CCN(S(=O)(=O)c2ccccc2)CC1	inactive	–

Structure (SMILES)	Potency	activity change, negative = growth inhibition
Cc1cnc(NC(=O)COc2cccc3c2OC(C)(C)C3)s1	inconclusive: 29.1 µM [inhibitor, single point]	–
CC1(C)C(=O)C2(CCCCC2)C(=O)OC1c1cccn1-c1ccc([N+](=O)[O-])cc1 (centres undefined)	inconclusive: 5.17 µM [inhibitor, full curve]	–
CCCCCc1c(-c2ccc(F)cc2F)ncn1CCc1ccccc1OC	inconclusive: 18.4 µM [inhibitor, single point]	–
CCc1nnc(NC(=O)CC(CN(C)S(=O)(=O)c2ccccc2)c2ccccc2)s1 (centres undefined)	inconclusive: 29.1 µM [inhibitor, single point]	–
COc1ccc(NCc2ccc([N+](=O)[O-])s2)c(OC)c1	active: 16.4 µM	–
C=C1C=C(C(F)F)n2ncc(C(=O)Nc3ccc(Br)cc3C(F)(F)F)c2N1	inactive	–
O=[N+]([O-])c1ccc(-c2csc(N3CCc4ccccc4C3)n2)cc1	inactive	–
CCOC(=O)C(NC(=O)c1ccccc1Cl)(Nc1ccc(C(F)(F)F)cc1)C(F)(F)F (centres undefined)	inconclusive: 29.1 µM [inhibitor, single point]	–
COc1cc2[nH]c(=O)n(Cc3ccc(C(=O)NC4CCN(Cc5ccccc5)CC4)cc3)c(=O)c2cc1OC	inactive	–
C[C@H](CO)N1C[C@H](C)[C@@H](CN(C)S(=O)(=O)c2cccs2)Oc2ccc(NC(=O)NC3CCCCC3)cc2C1=O	inconclusive: 29.1 µM [inhibitor, single point]	–
O=C(O)C1=C[C@@H](c2ccc3c(c2)OCO3)C[C@@H](OCCCCO)O1	inactive	–
O=C(/C=C/c1ccco1)Nc1cccnc1Cl	inactive	–
CC(C)(C)OC(=O)N(CCc1ccccc1)Cc1ccc(OCc2cccc(NC(=O)C3CCC3)c2)cc1	active: 20.6 µM	–
C=CCc1cc(/C=C/c2nc(O)c([N+](=O)[O-])c(=O)[nH]2)cc(OC)c1O	inactive	–
CN(C)C(CNC(=O)c1cccc(S(=O)(=O)NCc2ccccc2)c1)c1ccccc1 (centres undefined)	inconclusive: 25.9 µM [inhibitor, single point]	–
CCn1c(SCC(=O)N2CCc3ccccc32)nnc1-c1c[nH]c2ccccc12	inconclusive: 11.6 µM [inhibitor, partial curve, poor fit]	–
COc1ccc(C(=O)/C=C/c2ccc(OC(=O)c3cc(OC)c(OC)c(OC)c3)cc2)cc1	inconclusive: 29.1 µM [inhibitor, single point]	–
CC(=O)c1ccc(NC(=O)Cn2nc(C(F)(F)F)c3c2CCCC3)cc1	inactive	–
O=C(OCc1ccccc1)N1Cc2ccnnc2CC1c1ccccc1Br (centres undefined)	inconclusive: 20.6 µM [inhibitor, single point]	–
CCOC(=O)/C(=N\O)C1=NC(C)(C)Cc2ccccc21	inactive	–
Cc1ccc2occ(C(=O)c3ccco3)c(=O)c2c1	inconclusive: 29.1 µM [inhibitor, single point]	–
O=C(NC(CO)Cc1ccc([N+](=O)[O-])cc1)C(Cl)Cl (centres undefined)	active: 16.4 µM	–
Cc1ccc(NC(=O)CSC2=C(C#N)C(c3ccco3)CC(=O)N2)cc1 (centres undefined)	inconclusive: 23.1 µM [inhibitor, single point]	–
